56 variants from the RNAGym collection of RNA variant scans (doi:10.7554/elife.90254) can be followed below.

The source gives no read counts; variants with many changes may rest on few reads.

To fix the notation:
B1: LINE1-mini (parent)
chain: GGCAGAGCUCAACACAGCGUGGCAAAGUGGCUGUGGCUAGACUGCC

Variants of B1 are the subject of the series. Put plainly: self-cleavage, relative activity (ratio to wild type); higher = more cleavage; in vitro, sequencing; the parent is a self-cleaving ribozyme.
GGCAGAGCUCAACACAGCGUGGCAAAGUACCUGUGGCUAGAUUGCC: the self-cleavage was 2.18.

Regarding GGCAGAGCUCAACACAGCGUGGCAAACUGGUUGUGGUUAGACUGCC, the self-cleavage worked out at 0.02.

Take GGCAGAGCUCAACACAGCGUGGCAAAGUAGUUGUGGCUUUACUGCU: the self-cleavage turned out to be 0.03.

Take GGCAGAGCUCAACACAGCGUGGCAAAGACGCUUUGGCUAGACUGCC: the self-cleavage was 0.03.

In the case of GGCAGAGCUCAACACAGCGUGGCAAAUUGCCUUUGGCUAGACUGCC, the self-cleavage turned out to be 0.06.

For GGCAGAGCUCAACACAGCGUGGCAAACUGGGUGUGGCUAGACUGCA, the self-cleavage was 0.02.

For GGCAGAGCUCAACACAGCGUGGCAAAGAGGCCGUGCCUAGACUGCC, the self-cleavage was 0.01.

Regarding GGCAGAGCUCAACACAGCGUGGCAAACUGGCUGGGGCCAGACUGCC, the self-cleavage is 0.02.

As for GGCAGAGCUCAACACAGCGUGGCAAAGAGGCUCUGGGUACACUGCC, the self-cleavage is 0.04.

As for GGCAGAGCUCAACACAGCGUGGCAAAGCUGCGGUGGCUAGACUGCC, the self-cleavage turned out to be 0.01.

With GGCAGAGCUCAACACAGCGUGGCAAAGUAGCCUUGGCUAGACUGCC, the self-cleavage was 0.03.

Regarding GGCAGAGCUCAACACAGCGUGGCAAAGAAGCUGUGGCUAGAUUGCC, the self-cleavage is 0.07.

On to GGCAGAGCUCAACACAGCGUGGCAAAGAGGCCGUGGCUAGGCUGCC, for which the self-cleavage amounted to 0.03.

As for GGCAGAGCUCAACACAGCGUGGCAAAAUGGCUGCGGCUAGACUUCC, the self-cleavage was found to be 0.09.

In the case of GGCAGAGCUCAACACAGCGUGGCAAAGAGACUGUGGCUAGACUGCG, the self-cleavage amounted to 0.2.

Take GGCAGAGCUCAACACAGCGUGGCAAACGGGCUGUGGCUAGACUGGC: the self-cleavage was 1.07.

Consider GGCAGAGCUCAACACAGCGUGGCAAAGAGGUUGUGGCUUGACUGCC, for which the self-cleavage was determined as 0.08.

Take GGCAGAGCUCAACACAGCGUGGCAAAGCGGGUGUGGCUAGACUUCC: the self-cleavage stood at 0.01.

As for GGCAGAGCUCAACACAGCGUGGCAAAGAGUCUGAGGCUAGACUGCC, the self-cleavage came out at 0.29.

GGCAGAGCUCAACACAGCGUGGCAAAGAUGCUGUGGUUAGACUGCC: the self-cleavage is 0.01.

For GGCAGAGCUCAACACAGCGUGGCAAAGCGGUUGUGGCAAGACUGCC, the self-cleavage is 0.28.

In the case of GGCAGAGCUCAACACAGCGUGGCAAAGCGGCUCUGGCUAGACUGCU, the self-cleavage was determined as 0.09.

With GGCAGAGCUCAACACAGCGUGGCAAACUGGAUUUGGAUAGACUGCC, the self-cleavage was found to be 0.02.

As to GGCAGAGCUCAACACAGCGUGGCAAAGGGGCCGUGGCUAGACUGGU, the self-cleavage stood at 0.05.

For GGCAGAGCUCAACACAGCGUGGCAAACUGGCUGGGGCUAGAGUGCC, the self-cleavage stood at 0.03.

Consider GGCAGAGCUCAACACAGCGUGGCAAAGAGGCAGUGGGUAGGCGGCC, for which the self-cleavage was 0.

For the variant GGCAGAGCUCAACACAGCGUGGCAAAGGGGCAGUGGCUAGUCUGCC, the self-cleavage came to 0.25.

As for GGCAGAGCUCAACACAGCGUGGCAAAGAGGCUGUUGCUAGACUGCA, the self-cleavage stood at 0.07.

As for GGCAGAGCUCAACACAGCGUGGCAAACAGGCUUUGGCUAGACUGCC, the self-cleavage turned out to be 0.14.

In the case of GGCAGAGCUCAACACAGCGUGGCAAAGGGGCCGUGGCCAGACUACC, the self-cleavage worked out at 0.

Regarding GGCAGAGCUCAACACAGCGUGGCAAAGCGGCUCAGGCUAGCCUGAC, the self-cleavage is 0.06.

With GGCAGAGCUCAACACAGCGUGGCAAAUUGGCUUUGGCUUGACUGCC, the self-cleavage came to 0.03.

For the variant GGCAGAGCUCAACACAGCGUGGCAAAUUGGCUGUUGCUAAACUGCC, the self-cleavage is 0.05.

As for GGCAGAGCUCAACACAGCGUGGCAAACUGGCUUUGGCUAGACUGCG, the self-cleavage is 0.19.

For the variant GGCAGAGCUCAACACAGCGUGGCAAAGGGACUGGGGCUAGACUGCU, the self-cleavage was determined as 0.21.

Take GGCAGAGCUCAACACAGCGUGGCAAAGUAGCUGUGCAUAGACUGCC: the self-cleavage turned out to be 0.13.

In the case of GGCAGAGCUCAACACAGCGUGGCAAAGGGUCGGUGGCUAGACUGCC, the self-cleavage was determined as 0.16.

Take GGCAGAGCUCAACACAGCGUGGCAAAGUAGUUGUGUCUAGACUACC: the self-cleavage is 0.03.

With GGCAGAGCUCAACACAGCGUGGCAAAGUAGCUGUGACUAUACUGCC, the self-cleavage came to 0.48.

In the case of GGCAGAGCUCAACACAGCGUGGCAAAGCGGCUGUGCCGAGACUGCC, the self-cleavage was 0.02.

Consider GGCAGAGCUCAACACAGCGUGGCAAACUGGCUGUGGCUGGAUUGCC, for which the self-cleavage was determined as 0.03.

On to GGCAGAGCUCAACACAGCGUGGCAAACUGGCUGUGGCCAGACUUCC, for which the self-cleavage amounted to 0.08.

As to GGCAGAGCUCAACACAGCGUGGCAAAGGGGCCGAGGCUAGAUUGCC, the self-cleavage was determined as 0.

For GGCAGAGCUCAACACAGCGUGGCAAACUGGCUGUGACUAGACUGCA, the self-cleavage was 0.16.

For the variant GGCAGAGCUCAACACAGCGUGGCAAAGGGGCCGUGGCUCGAGUGCC, the self-cleavage is 0.04.

With GGCAGAGCUCAACACAGCGUGGCAAAGCGGCUGUUGCUCGACUGCC, the self-cleavage came to 0.12.

As to GGCAGAGCUCAACACAGCGUGGCAAAGUAGCUGUGGCUAAACUGCA, the self-cleavage was determined as 0.1.

In the case of GGCAGAGCUCAACACAGCGUGGCAAAGCGGCUGUGGCUAUACUUUC, the self-cleavage turned out to be 0.03.

Turning to GGCAGAGCUCAACACAGCGUGGCAAACUGGCUAAGGCUAGACUGCC, the self-cleavage is 0.04.

Take GGCAGAGCUCAACACAGCGUGGCAAAGUAGCGGUGGGUAGACUGCC: the self-cleavage is 0.03.

GGCAGAGCUCAACACAGCGUGGCAAAGUACCUGUCGUUAGACUGCC: the self-cleavage was 0.01.

On to GGCAGAGCUCAACACAGCGUGGCAAAGUAGCUGUGCCCCGACUGCC, for which the self-cleavage was determined as 0.04.

For the variant GGCAGAGCUCAACACAGCGUGGCAAAGUAGAUGUGUCCAGACUGCC, the self-cleavage was determined as 0.06.

In the case of GGCAGAGCUCAACACAGCGUGGCAAAGAGGUUGUGGCUUGACUGCA, the self-cleavage came to 0.32.

Turning to GGCAGAGCUCAACACAGCGUGGCAAAGAGUCUGUGGCUAGACUUCC, the self-cleavage came to 0.09.

As for GGCAGAGCUCAACACAGCGUGGCAAAGCGGCAGUGGCUAGACUGUC, the self-cleavage is 0.02.
